# Reference: article PMC4336329 (PLoS ONE, 2015)
# In all, about 310,000 compounds went through this assay and about 14,000 (4.5%) showed an effect of 50% or more. Effects have a minus sign here. Some of the results follow.
# Target: human ether-à-go-go-related gene (hERG) potassium channel (human, UniProt Q12809)
# Assay: primary screen, population patch clamp on CHO cells stably expressing hERG
# 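Also: peak tail current of the secondary pulse compared with the same well before compound.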
# Sequence of human ether-à-go-go-related gene (hERG) potassium channel (Q12809 whole entry, looked up): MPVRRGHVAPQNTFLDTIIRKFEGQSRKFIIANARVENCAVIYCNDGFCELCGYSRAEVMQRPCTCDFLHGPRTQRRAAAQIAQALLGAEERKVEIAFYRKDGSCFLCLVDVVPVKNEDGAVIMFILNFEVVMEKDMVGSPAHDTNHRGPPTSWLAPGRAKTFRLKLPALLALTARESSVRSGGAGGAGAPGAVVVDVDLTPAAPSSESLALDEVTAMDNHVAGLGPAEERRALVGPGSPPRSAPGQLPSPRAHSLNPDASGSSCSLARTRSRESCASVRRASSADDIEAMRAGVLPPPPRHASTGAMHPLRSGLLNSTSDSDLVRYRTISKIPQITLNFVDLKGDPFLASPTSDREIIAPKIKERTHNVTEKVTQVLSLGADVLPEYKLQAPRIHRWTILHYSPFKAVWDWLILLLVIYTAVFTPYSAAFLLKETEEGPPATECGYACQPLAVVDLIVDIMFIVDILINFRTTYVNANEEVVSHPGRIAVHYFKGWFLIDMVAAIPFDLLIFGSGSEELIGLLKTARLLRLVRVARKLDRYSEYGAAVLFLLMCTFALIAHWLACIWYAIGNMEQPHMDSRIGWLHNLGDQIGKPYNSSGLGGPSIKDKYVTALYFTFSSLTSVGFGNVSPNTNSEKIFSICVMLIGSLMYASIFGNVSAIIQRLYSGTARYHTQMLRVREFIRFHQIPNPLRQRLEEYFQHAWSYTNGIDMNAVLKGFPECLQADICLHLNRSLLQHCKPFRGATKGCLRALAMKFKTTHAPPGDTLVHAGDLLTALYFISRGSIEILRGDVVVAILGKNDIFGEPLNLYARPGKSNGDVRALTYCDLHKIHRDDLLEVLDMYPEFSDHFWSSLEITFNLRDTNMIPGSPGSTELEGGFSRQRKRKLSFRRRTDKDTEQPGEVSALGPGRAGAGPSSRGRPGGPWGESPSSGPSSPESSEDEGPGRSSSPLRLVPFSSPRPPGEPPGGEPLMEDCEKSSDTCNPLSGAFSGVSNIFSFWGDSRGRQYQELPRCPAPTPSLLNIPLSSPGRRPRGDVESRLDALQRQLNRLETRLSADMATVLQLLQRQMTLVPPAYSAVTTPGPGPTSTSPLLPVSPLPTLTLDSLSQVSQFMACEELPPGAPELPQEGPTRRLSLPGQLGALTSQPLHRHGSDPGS
row,Structure (SMILES),"hERG current change (%, negative = inhibition) at 10uM [%]"
1,CCn1c(SCC(=O)Nc2ccccc2C)nnc1-c1ccccc1O,1.99
2,Cc1ccccc1OCC(=O)Nc1ccc(C(N)=O)cc1,1.77
3,Cc1ccc(CN(C)S(=O)(=O)c2c(C)noc2/C=C/N(C)C)cc1,15.6
4,COc1ccc(NC(=O)c2cc(S(=O)(=O)N3CCCC3)oc2C)cc1,18.8
5,CCOC(=O)N1CCC(Nc2c([N+](=O)[O-])cc(C(=O)O)cc2[N+](=O)[O-])CC1,20.4
6,O=c1cc(CSc2ccccc2)[nH]c(=S)[nH]1,19.4
7,COc1ccc(S(=O)(=O)NC(C)C(=O)NC2CC2)cc1C (stereo not drawn),-0.0326
8,O=C(CN1C(=O)/C(=C\c2ccccc2Cl)Oc2ccccc21)NCc1cccnc1,10.3
9,COc1ccc(OC)c(-c2csc(NC(=O)C3=NNC(=O)CC3)n2)c1,8.91
10,O=C1CCCC(=O)C1CS(=O)(=O)c1ccccc1,8.6
11,O=c1c2ccccc2nc(-c2ccccc2)n1O,4.42
12,CCC1(CC)NC(=O)N(CC(=O)OCC(=O)Nc2ccccc2OC(F)F)C1=O,10.6
13,CCC(=O)Nc1ccc(C(=O)Nc2cccc(C)n2)cc1,16.7
14,COc1ccc(N2C(=O)CC(N3CCOCC3)C2=O)cc1 (stereo not drawn),12.7
15,COC(OC)c1ccc(C#N)c(SCc2ccccc2)n1,4.03
16,O=C(O)C1C2CCC(C2)C1C(=O)NCCc1cccc(Cl)c1 (stereo not drawn),17.2
17,COCCN1Cc2cccc(C(=O)NCc3ccccn3)c2C1=O,14.3
18,COc1cc(C2C(C#N)=C(N)N(N(C)C)C3=C2C(=O)CCC3)cc(OC)c1OC (stereo not drawn),11.1
19,COc1ccccc1N1CCN(C(=O)c2cc(-c3cccs3)on2)CC1,-22.7
20,N#C/C(=C\c1ccc(O)c([N+](=O)[O-])c1)C(=O)NCc1ccccc1,14.9
21,O=C(Nc1cccc(F)c1)C1CCCN(c2cnccn2)C1 (stereo not drawn),4.24
22,COC(=O)c1cc(Nc2cc(C)nc3ncnn23)cc(C(=O)OC)c1,5.27
23,COc1ccccc1CNC(=O)COC(=O)c1ccccn1,6.14

row,Structure (SMILES),"hERG current change (%, negative = inhibition) at 10uM [%]"
1,CCC(=O)c1ccc(OCC(=O)OC(C)C(=O)NCc2ccc3c(c2)OCO3)cc1 (stereo not drawn),12.9
2,CCOC(=O)N1CCC(N2C(=O)c3ccccc3C2Nc2ccc(C)cc2)CC1 (stereo not drawn),-32.8
3,CC(=O)c1cccc(NC(=O)C2CCN(S(=O)(=O)c3c(C)n[nH]c3C)CC2)c1.Cl,-8.06
4,COc1cccc(/C=C2\SC(=O)N(CC(=O)NC3C=CS(=O)(=O)C3)C2=O)c1 (stereo not drawn),5.26
5,COc1ccc(C(=O)NCCSCc2ccccc2)cc1OC,-5.31
6,O=C(NCCc1ccc(F)cc1)c1ccc(S(=O)(=O)N2CCCC2)cc1,-2.05
7,CC(C)CCSc1nc2c(c(=O)[nH]c(=O)n2C)n1CCCc1ccccc1,6.16
8,COc1ccc(NC(=O)c2cccc(N3C(=O)NC4CC3(C)Oc3ccccc34)c2)cc1 (stereo not drawn),-19.5
9,Cc1ccc(OCCC(=O)NNC(=O)c2ccccc2F)cc1,-8.25
10,CC1CCCC(NC(=O)C2CCC(CNc3c(N4CCCCC4)c(=O)c3=O)CC2)C1C (stereo not drawn),6.77
11,COc1ccc(-c2cc(C(F)(F)F)n3nc(C(=O)NCCCn4ccnc4)cc3n2)cc1,-41
12,CN1CCCC(OC(=O)c2cc(Br)ccc2Cl)C1.Cl (stereo not drawn),-30.8
13,CC(C)Cn1c(SC(C)C(=O)Nc2ccc(N3CCOCC3)cc2)nc2ccccc21 (stereo not drawn),-9.79
14,Cc1cc(Nc2ccc(C(=O)O)cc2)nc(N)n1,30.5
15,CCN(CCC(=O)O)c1ccccc1,9.57
16,COc1cc2c(cc1OC)-c1n[nH]c(=S)n1C(C)(C)C2,1.75
17,O=C(Nc1ccccc1N1CCCCC1)c1ccc(F)c(S(=O)(=O)N2CCOCC2)c1,-20.7
18,Cc1nn(Cc2ccc(C(=O)NC3CCCCC3)o2)c(C)c1Br,-34.6
19,O=C(Cc1nc(-c2cnccn2)no1)NNC(=O)Nc1ccccc1,22
20,C[C@]12CC[C@@H]3c4ccc(O)c(O)c4CC[C@H]3[C@@H]1CC[C@@H]2O,15.4
21,CC(C)(C)SCCNC(=O)CSc1ccccc1,5.14
22,Cc1[nH]c(=O)[nH]c(=O)c1S(=O)(=O)NCCc1ccc(S(N)(=O)=O)cc1,13.5
23,CCC(C)[C@H](NC(=O)NCc1ccc(Cl)cc1)C(=O)OC (stereo partly drawn),0.971

row,Structure (SMILES),"hERG current change (%, negative = inhibition) at 10uM [%]"
1,Cc1[nH]c2ccccc2c1C(O)c1ccncc1 (stereo not drawn),17.1
2,CCOC(=O)c1c(CN2CCN(C)CC2)oc2ccc(O)cc12,-38
3,COc1ccc(OCC(=O)Nc2ccc(N3CCN(C(=O)c4ccco4)CC3)cc2)cc1,0.974
4,Cc1ccc(S(=O)(=O)C2(C(=O)N3CCCCCC3)CC2)cc1,-11.6
5,CCOC(=O)N1CCC(N2CCN(c3ccccc3)CC2)CC1.Cl,-21.4
6,Cc1ccc(-c2cc(C(F)(F)F)n3ncc(C(=O)N4CCCCC4c4cccnc4)c3n2)cc1 (stereo not drawn),4.63
7,CCc1cc2c(NCCO)ncnc2s1,14.3
8,COc1ccc(C)cc1NC(=O)C1CCCCC1C(=O)O (stereo not drawn),14.7
9,Cc1cccc(N2CCN(C(=O)c3ccncc3)CC2)c1C,-37
10,O=C(Nc1ccc2[nH]c(=O)[nH]c2c1)c1cccc([N+](=O)[O-])c1,9.44
11,CC(=O)OCc1cc(-c2nc3ccccc3[nH]c2=O)nn1-c1ccc(Cl)cc1,18
12,COc1ccc(CCNCC(O)COc2ccc(OC)cc2C(C)(C)C)cc1 (stereo not drawn),-38.8
13,CN(CC(=O)Nc1ccccc1Br)C(=O)c1cc(S(=O)(=O)N(C)C)ccc1N1CCCC1,-8.64
14,COc1ccc(OCCOC(=O)CNC(=O)c2ccc(Cl)cc2Cl)cc1,-4.96
15,Cn1c(N)c(C(=O)COC(=O)c2cc(C(F)(F)F)nc3ccccc23)c(=O)n(Cc2ccccc2)c1=O,15.2
16,COc1cc(NC2=Nc3cccc4cccc2c34)cc(OC)c1OC,1.72
17,Cc1nc(NCCN2CCOCC2)c2nnn(Cc3c(F)cccc3Cl)c2n1,-8.32
18,CCOc1ccc(CCNS(=O)(=O)c2cccc3nsnc23)cc1OCC,-14.7
19,CC[C@]1(c2cccc(C)c2)C(=O)N(C(=O)OC)N1C(=O)OC,-6.61
20,CC1CCN(C(=O)COC(=O)Cc2ccc(Br)cc2)CC1,-23.2
21,Cc1cc2nncn2c(Cc2ccccc2)n1,-7.58
22,O=C(CNC(=O)c1ccccc1)N=Nc1c(O)[nH]c2ccc(Br)cc12,9.61
23,CC(C)CC(=O)Nc1nnc(SCC(=O)Nc2ccc(F)cc2)s1,16.8

row,Structure (SMILES),"hERG current change (%, negative = inhibition) at 10uM [%]"
1,Cc1cccc(NC(=O)c2nc[nH]c2C(=O)NC2CCN(C(=O)OC(C)(C)C)CC2)c1,1.23
2,COc1ccc(NC(=O)CSc2ccc3c4c(cccc24)C(=O)c2ccccc2-3)cc1,-4.94
3,CN(C)CC(C)(C)CNS(=O)(=O)c1ccc(Cl)cc1.Cl,-6.44
4,Cc1c(NC(=S)NC(=O)c2cc3ccccc3o2)c(=O)n(-c2ccccc2)n1C,-2.85
5,Cc1ccc(C(C)C)cc1OCC(=O)Nc1ccccc1N1CCCC1,10.3
6,Cc1oc(-c2ccc(Cl)cc2)nc1CN1CCCC(C(=O)NCc2ccccn2)C1 (stereo not drawn),-67.8
7,CCOC(=O)c1c(NC(=O)CN2CCOCC2)sc2c1CCCC2=O,-6.33
8,Cc1ccc(C(=O)Nc2ccc(C(=O)N3CCCCC3)cc2)cc1,-16.3
9,Cc1cccc(NC(=O)CN(C)S(=O)(=O)c2ccc(Br)cc2)n1,-21.8
10,Cn1c(=O)c2c(nc(N/N=C/c3ccncc3)n2Cc2ccccc2)n(C)c1=O,-28.8
11,COC(=O)c1[nH]c2ccc(Cl)cc2c1NC(=O)c1ccccc1[N+](=O)[O-],-4.92
12,Cc1nc2sc(C(=O)c3ccccc3)c(N)c2c(C)c1C,19.7
13,COc1ccc(CNC(=O)CCNS(=O)(=O)c2ccc(Br)s2)cc1,9.5
14,N#Cc1c(-c2ccc(F)cc2)ccnc1N1CCOCC1,16
15,CCc1ccc(Nc2nnc(SCC(=O)NCCN3C(=O)CSC3=O)s2)cc1,-17.3
16,c1ccc(NCc2nnc3n2CCCCC3)cc1,-2.98
17,CCC(=O)N1CC2(CC(c3cccc(NC(=O)CC(c4ccccc4)c4ccccc4)c3)=NO2)C[C@H]1C(N)=O (stereo partly drawn),11.3
18,Cc1nn(CCOc2ccccc2)c(=O)n1-c1ccccc1,1.55
19,CC1(C)CC(=O)C2=C(C1)N(N1CCOCC1)C(N)=C(C#N)C2c1cccs1 (stereo not drawn),-31.8
20,CCN(CC)C(=O)C1CCCN(c2ccc([N+](=O)[O-])cc2)C1 (stereo not drawn),-52.2
21,CCCn1cnc2c(oc3ccccc32)c1=O,4.8
